Laboratory results taken from patent publication US20220251173A1.

Target: hepatitis B virus surface antigen (HBsAg) (hepatitis B virus)
Assay: ELISA on commercial HBsAg plate, purified antibody, incubation and washes at pH 7.4, GAH-HRP, OD450/630

EC50 (read off the curve): 0.03 mg/L
B1: C26 DY (antibody, human IgG1, kappa)
heavy: EVQLQESGPGLVKPSQTLSLTCAVSGSSITHGYHWNWIRQFPGNKLEWIGYIHYDGSVLYNPSLENRVTITRDTSKNQFFLKLSSVTAEDTAKYYCASGFDHWGQGTTLTVSS[no letters for human IgG1 constant region with K326D L328Y (EU numbers)]
light: DVVMTQSPLSLPVTLGEPASISCRSSQSLVHSYGDTYLHWYLQKPGQSPKLLIYKVSNRFSGVPDRFSGSGSGTDFTLKISRVETEDLGVYYCSQNTHHPYTFGGGTKLEIKRTVAAPSVFIFPPSDEQLKSGTASVVCLLNNFYPREAKVQWKVDSALQSGNSQESVTEQDSKDSTYSLSSTLTLSKADYEKHKVYACEVTHQGLSSPVTKSFNRGEC
